# Assay results as given in PubChem BioAssay (NCATS).
# “And” between values parts separate entries of the source, which are not always exact repeats. Identical values can stand only once. This list was built around the results that the source calls inconclusive (neither active nor inactive); the mix of calls is not that of the screen. Potencies of inconclusive entries are doubtful fits and often do not repeat. A structure can be active in one record and inactive in another. The source made the active and inactive calls. Calls follow the shape of the dose curve; as a rule, active = well fitted curve in the direction sought with a large enough effect; inconclusive = small, poorly fitted or top-dose-only effect, or another doubt; inactive = no such curve, though single readings can be large; an effect the other way counts as inactive or inconclusive.
# Assay: Primary qHTS for inhibitors of nuclear receptor binding SET domain protein 2 (NSD2) in an isogenic RCH-ACV NSD2 p.E1099K mutant (9B) (AID 1645876)
# Settings: RCH-ACV NSD2 E1099K (9B) viability, CellTiter-Glo, 72 h; series mostly up to 44.9 µM; activity change, negative = viability loss: at the top concentration
# % is scaled to controls: 0 for no effect and ±100 for the full control effect; potency is read from the fitted curve at half-maximal effect; tags tell the direction and shape of the fitted curve.
# Also: nearly all actives have a fitted effect of over 70% in size.
row,SMILES,Potency
1,CCOC(=O)c1c(C)n(C)c2ccc(O)cc12,inactive
2,C[C@H]1c2cccc(O)c2C(O)=C2C(=O)[C@]3(O)C(O)=C(C(N)=O)C(=O)[C@@H](N(C)C)[C@@H]3[C@@H](O)[C@@H]21,"inconclusive: 26.6 µM [inhibitor, single point]"
3,CCN(CC)CCCC(C)Nc1nc(C)cc(Nc2ccc3nc(C)cc(N)c3c2)n1 (configuration not stated),"inconclusive: 23.5 µM [inhibitor, single point]"
4,CCOc1ccc(Nc2nc(-c3c(C)nc4ccccn34)cs2)cc1,"inconclusive: 0.132 µM [inhibitor, full curve, poor fit]"
5,COCCCOc1cc(C[C@@H](C[C@H](N)[C@@H](O)C[C@H](C(=O)NCC(C)(C)C(N)=O)C(C)C)C(C)C)ccc1OC,"inconclusive: 33.5 µM [inhibitor, single point] and inconclusive: 20.9 µM [inhibitor, partial curve]"
6,CN1C(C(=O)Nc2ccccn2)=C(O)c2ccccc2S1(=O)=O,"inactive and inconclusive: 5.9 µM [inhibitor, partial curve, poor fit]"
7,CC(C)(C)NC(=O)Nc1cccc(Nc2ncc(F)c(NC(C)(C)CO)n2)c1,active: 5.78 µM
8,Cn1c2cc(S(C)=O)sc2c2cnn(Cc3cccc(N)c3)c(=O)c21 (configuration not stated),"inconclusive: 26.3 µM [inhibitor, single point]"
9,O=C(OC1C[C@H]2CC[C@@H](C1)[N+]21CCCC1)C(O)(c1ccccc1)c1ccccc1 (some centres not stated),"inconclusive: 29.9 µM [inhibitor, single point]"
10,O=c1oc2c(O)c(O)cc3c(=O)oc4c(O)c(O)cc1c4c23,"inconclusive: 13 µM [inhibitor, partial curve, poor fit] and inconclusive: 3.62 µM [inhibitor, partial curve]"
11,CCCN[C@H]1CCc2nc(N)sc2C1,"inconclusive: 14.8 µM [inhibitor, single point]"
12,CNc1nc(Nc2ccc(C(=O)N3CCOCC3)cc2OC)ncc1Cl,"inconclusive: 16.3 µM [inhibitor, partial curve]"
13,O=C(CO)N1CCC(c2[nH]nc(-c3ccc(Cl)cc3)c2-c2ccncn2)CC1,"inconclusive: 20.5 µM [inhibitor, single point] and inactive"
14,CC1CCC(C(=O)N(c2cc(C#CC(C)(C)C)sc2C(=O)O)C2CCC(O)CC2)CC1 (configuration not stated),"inconclusive: 20.5 µM [inhibitor, single point]"
15,COc1ccc2c(Oc3ccc(NC(=O)c4c(C)n(CC(C)(C)O)n(-c5ccccc5)c4=O)nc3)ccnc2c1,"inconclusive: 6.61 µM [inhibitor, partial curve]"
16,COc1nccc(-c2c(-c3ccc(F)cc3)ncn2C2CCNCC2)n1,"inconclusive: 16.6 µM [inhibitor, partial curve]"
17,C#CCN[C@@H]1CCc2ccccc21,"inconclusive: 23.7 µM [inhibitor, single point]"

# Assay: Primary qHTS for inhibitors of nuclear receptor binding SET domain protein 2 (NSD2) in an RCH-ACV wild type WT cells (2C) (AID 1645877)
# Settings: RCH-ACV (leukaemia line) NSD2 WT (2C) viability, CellTiter-Glo, 72 h; series mostly up to 44.9 µM; activity change, negative = cell killing: at the top concentration
SMILES,Potency,outcome,"activity change, negative = cell killing"
C[C@H]1c2cccc(O)c2C(O)=C2C(=O)[C@]3(O)C(O)=C(C(N)=O)C(=O)[C@@H](N(C)C)[C@@H]3[C@@H](O)[C@@H]21,"inconclusive: 29.9 µM [inhibitor, single point]",,
C1Cc2[nH]nc(-c3nn[nH]n3)c2C1,,inactive,
NS(=O)(=O)c1ccc(NC2=CC(=O)c3ccccc3C2=O)cc1,,,inactive: -21.5%
CCN(CC)CCCC(C)Nc1nc(C)cc(Nc2ccc3nc(C)cc(N)c3c2)n1 (configuration not stated),"inconclusive: 16.6 µM [inhibitor, partial curve]",,
N#Cc1ccc(C(c2ccc(C#N)cc2)n2cncn2)cc1,,,inactive: -0.625%
CC[C@H](NC(C)C)[C@H](O)c1ccc(O)c2[nH]c(=O)ccc12,"inconclusive: 33.5 µM [inhibitor, partial curve, poor fit] and inactive",,
COc1cc(NC(=O)c2ccc(-c3ccc(Cl)cc3)o2)cc(OC)c1,"inconclusive: 33.2 µM [inhibitor, partial curve, poor fit]",,
CCOc1ccc(Nc2nc(-c3c(C)nc4ccccn34)cs2)cc1,active: 183 nM and inactive,,
COCCCOc1cc(C[C@@H](C[C@H](N)[C@@H](O)C[C@H](C(=O)NCC(C)(C)C(N)=O)C(C)C)C(C)C)ccc1OC,"inconclusive: 33.5 µM [inhibitor, single point]",,
CC(=O)OCC(CCn1cnc2cnc(N)nc21)COC(C)=O,inactive,,
CN1C(C(=O)Nc2ccccn2)=C(O)c2ccccc2S1(=O)=O,inactive,,
CC(C)(C)NC(=O)Nc1cccc(Nc2ncc(F)c(NC(C)(C)CO)n2)c1,active: 2.63 µM,,
CCn1c(C(=O)N(C2CC2)C2CC2)cc2c3c(ncn3C)c(Nc3cc(C)n(C)n3)nc21,"inconclusive: 16.3 µM [inhibitor, partial curve] and inconclusive: 14.8 µM [inhibitor, partial curve]",,
Cn1c2cc(S(C)=O)sc2c2cnn(Cc3cccc(N)c3)c(=O)c21 (configuration not stated),"inconclusive: 37.2 µM [inhibitor, single point]",,
CNC(=O)[C@H](Cc1ccccc1)NC(=O)[C@H](CC(C)C)[C@H](CSc1cccs1)C(=O)NO,,,inactive: 4.12%
O=C(OC1C[C@H]2CC[C@@H](C1)[N+]21CCCC1)C(O)(c1ccccc1)c1ccccc1 (some centres not stated),"inconclusive: 29.9 µM [inhibitor, single point]",,
O=c1oc2c(O)c(O)cc3c(=O)oc4c(O)c(O)cc1c4c23,inactive,,
O=C(Nc1cccnc1)N1CCC(Cc2cccc(Oc3ccc(C(F)(F)F)cn3)c2)CC1,"inconclusive: 7.28 µM [inhibitor, partial curve]",,
CNc1nc(Nc2ccc(C(=O)N3CCOCC3)cc2OC)ncc1Cl,"inconclusive: 29.5 µM [inhibitor, partial curve]",,
O=C(CO)N1CCC(c2[nH]nc(-c3ccc(Cl)cc3)c2-c2ccncn2)CC1,"inconclusive: 18.3 µM [inhibitor, single point] and inconclusive: 33.2 µM [inhibitor, partial curve, poor fit]",,
CC1CCC(C(=O)N(c2cc(C#CC(C)(C)C)sc2C(=O)O)C2CCC(O)CC2)CC1 (configuration not stated),"inconclusive: 20.5 µM [inhibitor, single point]",,
COc1ccc2c(Oc3ccc(NC(=O)c4c(C)n(CC(C)(C)O)n(-c5ccccc5)c4=O)nc3)ccnc2c1,"inconclusive: 14.5 µM [inhibitor, partial curve] and inconclusive: 7.42 µM [inhibitor, partial curve]",,
COc1nccc(-c2c(-c3ccc(F)cc3)ncn2C2CCNCC2)n1,active: 18.6 µM,,
CC(C)(OCc1nn(Cc2ccccc2)c2ccccc12)C(=O)O,,inactive,
C#CCN[C@@H]1CCc2ccccc21,"inconclusive: 21.1 µM [inhibitor, single point]",,
